Reference: the supplement of paper PMC9446081
The whole screen tested about 39,000 compounds, of which about 220 (0.56%) showed activity. The list shows a part of the results.

test system: Escherichia coli K-12 BW25113; assay: relative growth (OD600 normalised to plate interquartile mean) (fraction); higher = less growth inhibition, active = 0.2 or less; settings: 50 µM; LB; incubation time: overnight (16-24 h)
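Further: static incubation at 37 °C against the wild-type strain, values averaged over two biological replicates.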

SMILES	relative growth
O=C(C[C@H]1C=C[C@H](NS(=O)(=O)c2ccc(F)cc2)[C@H](CO)O1)N1CCC(Cc2ccccc2)CC1	inactive: 1
O=C(NC1CCCCC1)N1c2ccccc2C=Cc2ccccc21	inactive: 0.989
COc1ccc2c3c([nH]c2c1)[C@H](CO)N(C[C@]13CCN(CC1)Cc1ccc(cc1)F)C(=O)Nc1ccc(cc1)F	inactive: 0.983
COc1ccc(NC(=O)Nc2ccc3c(c2)C(=O)N([C@H](C)CO)C[C@H](C)[C@H](CN(C)C(=O)NC(C)C)OCCCC[C@@H](C)O3)cc1	inactive: 1
CCOc1ccc2c(c1)-c1c(ssc1=S)C(C)(C)N2C	inactive: 0.993
C[C@H](CO)N1C[C@H](C)[C@H](CN(C)Cc2cccc3c2OCCCO3)OCc2cn(nn2)CCCC1=O	inactive: 0.965
Cc1cc(C(=O)Nc2cccc3c2O[C@H](CN(C)S(=O)(=O)c2cccs2)[C@@H](C)CN([C@H](C)CO)C3=O)n(C)n1	inactive: 0.993
Nc1ncnc(Cl)c1N	inactive: 0.988
NC(=O)NN=Cc1ccc([N+](=O)[O-])o1	active: 0.0474
NC(=O)NCC#Cc1ccc2c(c1)[C@]1(C(=O)N2)[C@H](C(=O)N2CCN(c3ncccn3)CC2)[C@H]2C(=O)O[C@H](c3ccccc3)[C@H](c3ccccc3)N2[C@@H]1c1ccc(OCCO)cc1	inactive: 1.01
Cc1noc(C)c1S(=O)(=O)Nc1ccc2c(c1)C(=O)N([C@@H](C)CO)C[C@H](C)[C@@H](CN(C)C(=O)Nc1ccc3c(c1)OCO3)O2	inactive: 1.01
CCCNC(=O)N1C[C@@H](C)[C@H](OC)CN(C)C(=O)c2ccc(NS(=O)(=O)CC(F)(F)F)cc2OC[C@H]1C	inactive: 1
O=C(c1ccccc1)c1ccccc1	inactive: 1.01
COc1ccc(C(N)=O)cc1	inactive: 0.985
COc1ccc(NC(=O)Nc2ccc3c(c2)CC(=O)N([C@H](C)CO)C[C@@H](C)[C@H](CN(C)S(C)(=O)=O)O3)cc1	inactive: 1.01
COc1ccc(S(=O)(=O)N(C)C[C@@H]2Oc3c(NS(=O)(=O)c4cn(C)cn4)cccc3C(=O)N([C@@H](C)CO)C[C@H]2C)cc1	inactive: 0.983
COc1ccc2c3c(n(c2c1)C)[C@H](CO)N(C[C@]13CCN(CC1)CC1CCOCC1)C(=O)Cc1ccccn1	inactive: 1.03
C[C@@H]1CN([C@@H](C)CO)S(=O)(=O)c2ccc(C#CC3(O)CCCC3)cc2O[C@@H]1CN(C)C(=O)Cc1ccccc1	inactive: 1
O=C(C[C@@H]1CC[C@H]2[C@@H](COC[C@@H](O)CN2S(=O)(=O)c2cccc(Cl)c2)O1)NCc1ccncn1	inactive: 0.993
C[C@@H]1CN([C@@H](C)CO)S(=O)(=O)c2ccc(C#Cc3ccccc3)cc2O[C@H]1CN(C)S(=O)(=O)c1cn(C)cn1	inactive: 1.01
C[C@@H]1CN([C@@H](C)CO)S(=O)(=O)c2ccc(C#CC3(O)CCCC3)cc2O[C@H]1CN(C)C(=O)Nc1ccccc1	inactive: 1.01

SMILES	relative growth
C[C@@H]1CCCCO[C@@H](CN(C)C(=O)Nc2ccc(F)cc2)[C@@H](C)CN([C@H](C)CO)C(=O)c2cc(NS(=O)(=O)c3cccs3)ccc2O1	inactive: 0.998
C[C@@H]1CCCCO[C@@H](CN(C)S(=O)(=O)c2ccc(F)cc2)[C@@H](C)CN([C@H](C)CO)C(=O)c2cc(NS(=O)(=O)c3ccc(Cl)cc3)ccc2O1	inactive: 1.02
C[C@H](CO)N1C[C@H](C)[C@@H](CN(C)Cc2cccc(F)c2)OCc2ccccc2-c2c(n(C)c3ccccc23)C1=O	inactive: 1.01
COc1ccc(S(=O)(=O)N2C[C@H](O)COC[C@H]3O[C@H](CC(=O)NCCCN4CCOCC4)CC[C@@H]32)cc1	inactive: 1
COc1ccc([Si](C)(C)[C@@H]2[C@@H](CCOC(=O)NCCCCCC(=O)NO)O[C@@]3(C(=O)N(Cc4cccc(I)c4)c4ccccc43)[C@H]2C)cc1	inactive: 0.934
c1ccc(-c2nc(-c3cccs3)[nH]c2-c2ccccc2)cc1	inactive: 1.03
Cc1noc(C)c1NC(=O)N(C)C[C@H]1OCCCC[C@@H](C)Oc2ccc(NS(=O)(=O)c3ccccc3)cc2C(=O)N([C@@H](C)CO)C[C@@H]1C	inactive: 0.975
C[C@H](CO)N1C[C@H](C)[C@@H](CN(C)Cc2ccc(C(=O)O)cc2)OCCCC[C@H](C)Oc2ccc(NS(=O)(=O)c3ccc(F)cc3)cc2C1=O	inactive: 0.967
CNC(=O)C[C@@H]1CC[C@H]2[C@@H](COc3ccc(NC(=O)c4ccc(C(F)(F)F)cc4)cc3C(=O)N2C)O1	inactive: 1.03
C[C@@H]1CCCCO[C@H](CN(C)Cc2ccccc2)[C@@H](C)CN([C@@H](C)CO)C(=O)c2cc(NC(=O)Nc3ccc(F)cc3)ccc2O1	inactive: 1.03
C[C@H]1CN([C@@H](C)CO)C(=O)c2cc(-c3cncnc3)cnc2O[C@@H]1CN(C)C(=O)CN1CCOCC1	inactive: 0.985
CCCCOc1ccc(C(=O)CCN2CCCCC2)cc1.Cl	inactive: 0.881
COc1ccc(NC(=O)N(C)C[C@@H]2OCCCC[C@H](C)Oc3ccc(NC(=O)NC4CCCCC4)cc3C(=O)N([C@@H](C)CO)C[C@@H]2C)cc1	inactive: 1.02
O=C(C[C@H]1C=C[C@H](NS(=O)(=O)c2ccccc2)[C@@H](CO)O1)NCc1ccncn1	inactive: 0.999
C[C@@H]1CN([C@H](C)CO)C(=O)c2cc(C3=CCCC3)cnc2O[C@H]1CN(C)C(=O)Nc1ccc(C(F)(F)F)cc1	inactive: 0.979
COC(=O)Cc1cccn1C	inactive: 0.978
C[C@@H]1CN([C@H](C)CO)C(=O)c2cc(NC(=O)C3CC3)ccc2O[C@@H]1CN(C)Cc1ccc(C(=O)O)cc1	inactive: 1.01
COc1ccc(S(=O)(=O)N(C)C[C@H]2Oc3c(NC(=O)Nc4cccc5ccccc45)cccc3C(=O)N([C@H](C)CO)C[C@H]2C)cc1	inactive: 1.04
C[C@@H]1CN([C@@H](C)CO)C(=O)Cc2cc(NC(=O)CCCN(C)C)ccc2O[C@@H]1CN(C)S(=O)(=O)c1ccc(Cl)cc1	inactive: 0.999
CN(C)CCCNC(=O)C[C@@H]1CC[C@@H]2[C@H](COC[C@@H](O)CN2S(=O)(=O)c2ccc(F)cc2)O1	inactive: 1.04
CN1CCN(C(=O)C[C@@H]2CC[C@H]3[C@@H](COc4ccc(NC(=O)C5CCCCC5)cc4C(=O)N3C)O2)CC1	inactive: 0.992

SMILES	relative growth
CCC(=O)NC[C@H](Cc1ccc(OCCc2nc(-c3ccccc3)oc2C)cc1)N/C(C)=C\C(=O)c1ccc(C(F)(F)F)cc1	inactive: 1.08
C[C@H]1CN([C@@H](C)CO)C(=O)c2c(c3ccccc3n2C)-c2ccccc2CO[C@H]1CN(C)C(=O)Nc1ccc(-c2ccccc2)cc1	inactive: 1.03
Cc1ccc(S(=O)(=O)N2C[C@@H](O)COC[C@H]3O[C@H](CC(=O)NCc4ccc(C)c(C)c4)CC[C@@H]32)cc1	inactive: 0.99
NCc1n[nH]c(=O)c2ccccc12	inactive: 0.967
COc1cccc(S(=O)(=O)N[C@H]2C=C[C@H](CC(=O)NC3CCC3)O[C@H]2CO)c1	inactive: 0.988
COc1ccc(NC(=O)N(C)C[C@@H]2OCCCC[C@H](C)Oc3ccc(NC(=O)Nc4cccc5ccccc45)cc3C(=O)N([C@H](C)CO)C[C@@H]2C)cc1	inactive: 1.02
C[C@H](CO)N1C[C@H](C)[C@H](CN(C)C(=O)Nc2ccnc(N3CCOCC3)c2)OCc2cn(nn2)CCCC1=O	inactive: 0.98
C[C@H](CO)N1C[C@H](C)[C@@H](CN(C)S(=O)(=O)c2cccs2)OCCCC[C@H](C)Oc2ccc(NC(=O)C3CCCCC3)cc2C1=O	inactive: 0.997
Cn1c(=O)c2c(ncn2CCNC2=NCCC2)n(C)c1=O	inactive: 0.984
COC(=O)c1c2oc(c1C(=O)OC)C(=O)N[C@@H](Cc1ccccc1)Cn1cc(nn1)[C@@H](Cc1ccccc1)NC(=O)N[C@H](CO)CC2	inactive: 0.946
O=c1ccc(=O)n(CCO)[nH]1	inactive: 0.947
CO[C@H]1CN(C)C(=O)c2ccc(NC(=O)C3CC3)cc2OC[C@@H](C)N(C(=O)C2CCOCC2)C[C@@H]1C	inactive: 1.01
COc1ccc(NC(=O)Nc2ccc3c(c2)C(=O)N([C@H](C)CO)C[C@@H](C)[C@H](CN(C)Cc2ccc(Cl)c(Cl)c2)O3)cc1	inactive: 1
O=C1CNC(=O)CN1	inactive: 1.02
C[C@@H]1CN([C@@H](C)CO)C(=O)Cc2cc(NC(=O)Cn3cnnn3)ccc2O[C@@H]1CN(C)CC1CC1	inactive: 0.99
C[C@@H]1CN([C@@H](C)CO)C(=O)c2c(c3ccccc3n2C)-c2ccccc2CO[C@H]1CN(C)Cc1cccc(C(F)(F)F)c1	inactive: 1.06
C=CCC[C@@H](Cc1ccc(F)cc1)C(=O)OC[C@@H]1CCCN1C(=O)[C@@H](CC=C)CC(=O)N(CCO)Cc1ccccc1	inactive: 1.07
C[C@H]1CN([C@@H](C)CO)C(=O)c2cc(NS(=O)(=O)c3ccc(F)cc3)ccc2O[C@H]1CN(C)C(=O)Nc1ccc(C(F)(F)F)cc1	inactive: 1
CCC(=O)Nc1ccc2c(c1)OC[C@H](C)N(C(=O)CN1CCOCC1)C[C@H](C)[C@H](OC)CN(C)C2=O	inactive: 1.01
CC(C)NC(=O)N(C)C[C@H]1Oc2ccc(NC(=O)Cn3cnnn3)cc2CC(=O)N([C@@H](C)CO)C[C@@H]1C	inactive: 0.997
C[C@@H]1CCCCO[C@H](CN(C)C(=O)C2CCCCC2)[C@H](C)CN([C@@H](C)CO)C(=O)c2cc(NC(=O)Cc3ccccc3)ccc2O1	inactive: 0.992
